Paper PMC12136788
Substitutions are numbered along the chain they refer to. The list shows a part of the results.

T1: UNK ZnF1-3 (human, UniProt Q9C0B0 31-174)
T1 sequence: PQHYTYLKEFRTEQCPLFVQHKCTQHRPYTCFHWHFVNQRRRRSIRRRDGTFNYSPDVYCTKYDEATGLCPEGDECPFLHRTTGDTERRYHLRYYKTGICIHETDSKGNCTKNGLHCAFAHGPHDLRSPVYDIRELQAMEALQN

B1: chr6:86333760:86333761:-_ENSG00000135316_ENST00000355238|hu_mus|hu_hu_hu_mus_True|78_78 (ssRNA)
RNA: GGGAGUUCUACAGUCCGACGAUCUUCCUCAAGAAUCUGCUCCUUGGUUUUACUCUUAGGAAUAGAGCCCACAAAAAGCCUAUUGUUGGCAACUGAGAUGCAGACACCAAUGUGCUUCCCGGAACGAAUUUCAUGAUUAUUAUACAACAGAGGAUUGAGCAUCA
B2: chr5:32599118:32599119:+_ENSG00000113387_ENST00000502897|hu_hu|motif|central (ssRNA)
RNA: GGGAGUUCUACAGUCCGACGAUCAGAAAUACCUUUUCUUCCUGGUUUCAUUUCACCUUCAGGAUCCAUCCAAUAUUCUCGGAUAUCAAUUAGCACUUUGCCUUUAAAAUCGCGAACACUAACGUACCUCAUUUUCCCAAUCUGCAACAGAGGAUUGAGCAUCA
B3: chr2:42509997:42509998:+_ENSG00000143924_ENST00000318522|hu_mus|hu_hu_hu_mus_True|48_108 (ssRNA)
RNA: GGGAGUUCUACAGUCCGACGAUCUCGCUGAGUUCUCUCCUCAUAAUUAAACAGGACUACCACUGAGGCGAUAAAAUAAACUAUCUCCCCGGUCGGAAGCAGGUAUACAUUCGCUCUACAGUCCUUUCCUCGAUAACCGUAUACCAACAGAGGAUUGAGCAUCA
B4: chr1:60041781:60041782:+_ENSMUSG00000041040_ENSMUST00000036540|mus_hu|mus_mus_mus_hu_False|88_88 (ssRNA)
RNA: GGGAGUUCUACAGUCCGACGAUCAAGUUUACAAUAGUAAAGUAAAUCAAAUUUAGUCAAAUUUUCUUUUAUUUUCCUUCACAAAAGAAAAUCUUUAUAACCCAGUCCUAGUCUUGGACAUAGUGAAAGCUAUAAAUUCUGACUCAACAGAGGAUUGAGCAUCA
B5: chr11:115359427:115359428:-_ENSMUSG00000020737_ENSMUST00000021083|mus_hu|FALSE|FALSE (ssRNA)
RNA: GGGAGUUCUACAGUCCGACGAUCUGCAGUUCACAAGCAUGGAGGAAACAGACAGAACGACAGCGUUCAGGACAGUCAGAGCUAACCCAAGACGAGGCUGGACUUGCCGCCAGGGGGAUUUCUUCUGGAUGGCACUGGGGCCGGCAACAGAGGAUUGAGCAUCA
B6: chr11:46405157:46405158:+_ENSG00000110492_ENST00000395566|hu_hu|hu_hu_hu_mus_False|28_48 (ssRNA)
RNA: GGGAGUUCUACAGUCCGACGAUCCCCUCCCCACUUUGGGCACUUGGUGUGGGCGUGAGAGGACAGGCGUGAUUGACAGAGCUGACAAGCAGACAGAAGGCACUGGUGGGUCACAUCUUGGGCCUGUGGGAGAGGAGGGCUCCGCAACAGAGGAUUGAGCAUCA
B7: 35579135_35579255_1938_CDS_ENSG00000197056_ENST00000373330|human|control|control (ssRNA)
RNA: GGGAGUUCUACAGUCCGACGAUCUUGUGAAUUCAUAAGUCGAAAUGUUUCUUCUCCUUUAUCUUUUGCUCUCAUUUCUAACAAUUCUAAAAAAUUGCCUUUAUUCACAGAUGAAACUGACUGGUCGUUUCCUCUUAAGGGUAACAACAGAGGAUUGAGCAUCA
B8: chr9:14812383:14812384:-_ENSMUSG00000031934_ENSMUST00000164273|mus_mus|mus_mus_mus_hu_True|38_98 (ssRNA)
RNA: GGGAGUUCUACAGUCCGACGAUCAUAGCCCAGGUAGAUACAUGCCAACAGUAUAAUGAUGAGUGUCAGCAGGCGGCAGCUAAUGUACUUGAUGAUUAAAUGACUAGAAUUUUUCUUUGUCUUCAAGUACUGCUCCACAAUUGGCAACAGAGGAUUGAGCAUCA
B9: chrX:130830059:130830060:+_ENSMUSG00000033578_ENSMUST00000037687|mus_hu|motif|central (ssRNA)
RNA: GGGAGUUCUACAGUCCGACGAUCGGGCCACAAUAGUUACGGUUCUGGGGGAUGCCAUGGGGUCGCCAAGGCAGGUCCCAACGGAUCCUUCUGAUUUGCGCACCCGCUCUGUCCAAGGUGCAGGCAGUUAGCACAGGGAGAGCUCAACAGAGGAUUGAGCAUCA
B10: chr2:42509997:42509998:+_ENSG00000143924_ENST00000318522|hu_hu|motif|central (ssRNA)
RNA: GGGAGUUCUACAGUCCGACGAUCUCGCUGAGUUCUCUCCUCAUAAUUAAAUAGUACUACUACUGAUGCAAUGAAAUAAACGGUUUUCCCGGUCGGAAGAAGGUAAACAUUAGCUCUACAGUCCUUUCCUCGAUAACCAUAUGCCAACAGAGGAUUGAGCAUCA
B11: 62551017_62551963_1832_CDS_ENSG00000108854_ENST00000262435|human|control|control (ssRNA)
RNA: GGGAGUUCUACAGUCCGACGAUCGCCAUUUGGUUUAAGUUCAUGCUGAAUAAUUUCACCAUAUGCAUUAUGUUCAACACAGAAGGUAUGGUCCAAAACACCUGUAAUAUCAUUCUCAAGUAUCCACACUAAACUGUUGUGAAGCAACAGAGGAUUGAGCAUCA
B12: chr6:86333760:86333761:-_ENSG00000135316_ENST00000355238|hu_mus|hu_hu_hu_mus_True|18_28 (ssRNA)
RNA: B1 RNA with A63C, G111A, C114U, C117U, G120A
B13: chr2:113286301:113286302:+_ENSG00000114999_ENST00000233336|hu_hu|FALSE|FALSE (ssRNA)
RNA: GGGAGUUCUACAGUCCGACGAUCAGCUGGCUGGGUCUGAGGUUGCUCCACAUCUGGGGGUGGGAAGACACUGGAAAUGGCUAUGUCCACGAUGCCUUGGCACAGUUCUGCAUAGAGCUUCUGAGCACAUGCAGGGGCACCGUUCAACAGAGGAUUGAGCAUCA
B14: chrX:71549762:71549763:+_ENSMUSG00000019087_ENSMUST00000019231|mus_mus|mus_mus_mus_hu_False|68_98 (ssRNA)
RNA: GGGAGUUCUACAGUCCGACGAUCAAACCCGUGUACUCACUCUUAACAGCACAACAUCACCAGAAAAAAAACAUAACAGCCAAGCAGGACAGACAGUUAAGUAGUACUUCCACACUCCCAAACUCAGGGAGCCCUAUAACCUUACAACAGAGGAUUGAGCAUCA
B15: chr4:175160266:175160267:-_ENSG00000164117_ENST00000503293|hu_mus|motif|central (ssRNA)
RNA: GGGAGUUCUACAGUCCGACGAUCAGGGGCAUGAAUAUGACGAAAAAAUUCUCUCAGUGCAUUCGGCAAGAACUGAUUUCGGAAAUUAUGCAAGGUUACAAGGUCAUCCAAGACAUCUCUCCUUUCAUCAAGAUAGAUUCUCAGCAACAGAGGAUUGAGCAUCA
B16: 98597986_98598106_1487_CDS_ENSMUSG00000028560_ENSMUST00000091358|mouse|control|control (ssRNA)
RNA: GGGAGUUCUACAGUCCGACGAUCAGGUUGUCCUUUGGAGCGCUGGUUAGUUGUUAUUUUUCCAAGACUACAGAACUUGGAAAGAAUGCUGGGUUGCUUAGUGGAUGGCUUUAACCAAUUUAUUUUAACUUUUGAUUUCUUCUGCAACAGAGGAUUGAGCAUCA
B17: chr10:5788261:5788262:+_ENSG00000108021_ENST00000328090|hu_mus|FALSE|FALSE (ssRNA)
RNA: GGGAGUUCUACAGUCCGACGAUCAUAAGCUGUGGUCAAGGUGGCUUGUGUGACAGAAUCAUUAUAAGAAACCAUCUUUGUGCUCUGACAGGUUUUAUCUUCACUGGGAAUACAAGUACCAUGACUUUGGGCACUUACAACACCCAACAGAGGAUUGAGCAUCA
B18: 226175988_226178962_701_3pUTR_ENSG00000143751_ENST00000272091|human|control|control (ssRNA)
RNA: GGGAGUUCUACAGUCCGACGAUCCAUGGAAACCCAUUCCUGAAGUGCUUGGUGCUUCUUCACUGUCAUCAUCUGAACUCUCAGAGUUGGACCCUUCUGCAGUCUCUAGUCCCUCCAUGCCCAACCAGAAGCAUCUCCUCUUUCCAACAGAGGAUUGAGCAUCA
B19: chr4:17845017:17845018:+_ENSG00000109805_ENST00000514176|hu_mus|hu_hu_hu_mus_False|1_58 (ssRNA)
RNA: GGGAGUUCUACAGUCCGACGAUCGCUCUCUUAACUUGUAUCUUCAUUAAGGAACUCUGCAAGGUUAAGUUUACUUUUUCUAGUGCUAGCUGUUUUGGCUCGUCUGGGUAAUCUCAUCUUCAUUUCUGAUGGUGGUUUGGAACUCAACAGAGGAUUGAGCAUCA
B20: chr4:11091628:11091629:+_ENSMUSG00000028211_ENSMUST00000029865|mus_hu|FALSE|FALSE (ssRNA)
RNA: GGGAGUUCUACAGUCCGACGAUCUUCUUUCUCAUUGAAUUCUGGUUCUUGGUUGGAGGAAGAACUGACUUCACCCACAAACAUUUUAUUCAGCCUCUGGAACAUUGUUAAGGCAAGACUGAGAGUUUGGCUGGAUGUCUUUUACAACAGAGGAUUGAGCAUCA
B21: chr12:48362563:48362564:+_ENSG00000134291_ENST00000256686|hu_hu|hu_hu_hu_mus_False|88_98 (ssRNA)
RNA: GGGAGUUCUACAGUCCGACGAUCUCCGUCAAGCCCUUCAAGCCCCACAUAGACUCUAAACUGUAAUCACUUUGUAUGGGGAAGGAAAAGAAACGCCAAAAACUUUCCAAAAAGCGGGGGUGGGGUGAGGCGGGAGGGGGAGGUCAACAGAGGAUUGAGCAUCA
B22: chr3:185643329:185643330:-_ENSG00000136527_ENST00000456380|hu_mus|FALSE|FALSE (ssRNA)
RNA: GGGAGUUCUACAGUCCGACGAUCGACAUGGGAGAAUGGCUGUGGCUGUGGCGCCUGCGAUAAUCUCGGCUGUAAGACCUGCUCCGGGAUCGUCUAUGCGAGCGAGAUCGUGAUCGUGACCUUGUAUAAUGCCUUCUAGAACUUCAACAGAGGAUUGAGCAUCA

Each binder was assayed against T1, UNK ZnF1-3 (assay: nsRBNS (natural sequence RNA bind-n-seq); RBNS binding buffer (assumed for nsRBNS): 25 mM Tris pH 7.5, 150 mM KCl, 3 mM MgCl2, 0.01% Triton X-100, 500 ug/ml BSA, 20 U/ml SUPERase-In, 4 C; UNK is unkempt and MSI1 is Musashi-1; names of the RNAs are library labels; protein concentration not given here; high values mean tight binding).

Binder | binding signal
B1 | 1.14 enrichment R
B2 | 0.699 enrichment R
B3 | 1.13 enrichment R
B4 | 0.563 enrichment R
B5 | 1.71 enrichment R
B6 | 2.04 enrichment R
B7 | 0.521 enrichment R
B8 | 1.25 enrichment R
B9 | 0.83 enrichment R
B10 | 1.03 enrichment R
B11 | 1.09 enrichment R
B12 | 1.22 enrichment R
B13 | 1.3 enrichment R
B14 | 2.33 enrichment R
B15 | 1.21 enrichment R
B16 | 1.12 enrichment R
B17 | 0.996 enrichment R
B18 | 1.02 enrichment R
B19 | 0.331 enrichment R
B20 | 0.535 enrichment R
B21 | 2.24 enrichment R
B22 | 0.854 enrichment R
